# Data as given in PubChem BioAssay (NCI).
# Several values for one entry are separate records, joined by “and”; a condition that tells them apart may be missing. Equal values may be shown once.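 Values below derive from 48-hour exposures of cells grown in 96-well plates, with endpoints linearly interpolated between the two concentrations bracketing the appropriate inhibition level. At the GI50, growth is halved. TGI denotes the concentration required for complete inhibition of growth.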
# Tested on: NCI-H322M lung
# Assay: NCI-60 cell line screen, 48 h
SMILES,TGI,GI50
COc1ccc(Cc2nccc3cc(OC)c(OC)cc23)cc1OC,> 100 µM,
NNc1[nH]c(=S)[nH]c1C(N)=O,> 100 µM,
NC(=O)c1[nH]cnc1/N=N/SCC(N)C(=O)O (stereo unspecified),> 100 µM,
Cc1cc(C)c(S(=O)(=O)ONC(=O)OC(C)(C)C)c(C)c1,> 100 µM,
COc1ccc(/C(=N/NC(N)=O)C(c2ccc(OC)cc2)C2C(=O)Oc3ccccc32)cc1 (stereo unspecified),> 100 µM,
O=C(O)c1ccc2c(c1)nc(Nc1cccc(Cl)c1)c1ccncc12,15.9 µM and > 10 µM,1.31 µM and 2.1 µM
O=[N+]([O-])c1ccc(Sc2c3ccccc3nc3ccccc23)nc1,37.7 µM,
O=C(Oc1ccccc1Cl)c1ccccc1Nc1ccnc(C(F)(F)F)c1,19.4 µM,5.22 µM
O=C(c1ccccc1)c1nc2ccc(C(F)(F)F)cc2[n+]([O-])c1C(F)(F)F,> 100 µM,> 100 µM
COc1cc2cc(C(=O)N3CC(CCl)c4ccccc43)[nH]c2c(OC)c1OC (stereo unspecified),> 100 µM,
N=C(N)SCc1cccc2c(=O)cc(-c3ccccc3)oc12,25.5 µM,
CC1(C)CC(=O)c2c(nc(SSc3nc4c(c(-c5ccccc5)c3C#N)C(=O)CC(C)(C)C4)c(C#N)c2-c2ccccc2)C1,> 10 µM,
Cc1nc2n(c(=O)c1CCN1CCC(c3noc4cc(F)ccc34)CC1)CCCC2,> 50 µM,> 50 µM
Nc1c(C(=O)Nc2ccccc2F)sc2nc3c(cc12)C(=O)CCC3,> 100 µM,> 29.5 µM
CSc1nc2[nH]c(=O)c(C)nc2c(=O)[nH]1,> 100 µM,
CCOC(=O)c1ccc(-n2c(SCC)nc3sc(C)c(C)c3c2=O)cc1,> 100 µM,
O=C(c1ccc(Br)cc1)n1c2ccc(Br)cc2c2nc3ccccc3nc21,> 100 µM,
CSc1ccc(/C=C/c2ccnc3ccccc23)cc1,32.9 µM,
CN(C)C(=O)Oc1ccc(-c2cn3cc(NC(=O)c4ccccc4)ccc3n2)cc1,> 100 µM,
O=C(NCCCCCCCCNC(=O)c1cccc2ccccc12)c1cccc2ccccc12,> 100 µM,
Cc1ccc(/C=C/C(=O)c2cc(CN(C)C)c(O)c(CN(C)C)c2)cc1,59.2 µM,
c1ccc(C[n+]2cccc(-c3cc4ccccc4[nH]3)c2)cc1,> 100 µM,
CN1CCC23c4c5ccc(O)c4OC2c2[nH]c4ccccc4c2CC3(O)C1C5 (stereo unspecified),> 100 µM,
COc1cccc(C2C3=C(COC3=O)Oc3cc4c(cc32)OCO4)c1 (stereo unspecified),> 100 µM,
COc1ccc2c(c1)[n+](=O)c(C(=O)/C=C/c1cc(OC)c(OC)c(OC)c1)c(C)n2[O-],> 100 µM,27.7 µM

SMILES,TGI,GI50
CCCCCCCCCCCCN(O)C(=O)c1ccccc1,> 100 µM,
O=C(NC(Nc1ccc(F)c(Cl)c1)(C(F)(F)F)C(F)(F)F)OCc1ccccc1,> 100 µM,
CCCCCCCN1C(=O)C(O)(c2ccc(C3(O)C(=O)N(CCCCCCC)c4ccccc43)s2)c2ccccc21 (stereo unspecified),5.6 µM,
COc1ccccc1S(=O)(=O)Nc1ccc2c(c1)CN(C)C(=O)N2,> 100 µM,6.31 µM and 5.49 µM
O=C(O)C1(Cc2cccc(Nc3nccs3)n2)CCC(Oc2cccc(Cl)c2F)CC1 (stereo unspecified),64.2 µM,23.9 µM
O=C(c1cccc(C(=O)c2ccc3c4c(cccc24)C(=O)N(c2ccccc2)C3=O)c1)c1ccc2c3c(cccc13)C(=O)N(c1ccccc1)C2=O,> 100 µM,
CC(C)NCCC(O)c1cc2ccccc2o1 (stereo unspecified),> 100 µM,
NC(N)=NCCCC(NC(=O)OCCCCCCn1ccc(N)nc1=O)C(=O)O (stereo unspecified),> 100 µM,
C/C(=C\c1ccc(Cl)c(Cl)c1)[N+](=O)[O-],4.21 µM and 34.7 µM,2.03 µM
COC1=Nc2ccccc2S(=O)(=O)C=C1,37.7 µM,
C#CCOc1cccc(Nc2ncnc3ccc(NC(=O)CCl)cc23)c1,40.2 µM,7.48 µM
CN(C)c1ccc(/C=N\N2C(=O)c3ccccc3C2=O)cc1,> 100 µM,
Cc1c2c(n(CCN(C)C)c1C)NN=C(C#N)S2(=O)=O,> 100 µM,
CC(=O)OCC1O[C@@H]([S-])C(OC(C)=O)[C@H](OC(C)=O)[C@@H]1OC(C)=O.[Au+].c1ccc(CN2[CH-]N(Cc3ccccc3)C(c3ccccc3)=C2c2ccccc2)cc1,7.78 µM,2.77 µM
COc1cc2c(cc1O)[C@@H]1Cc3c(cc(OC)c(OC)c3Oc3cc4c(cc3OC)CCN(C)[C@@H]4Cc3ccc(O)cc3)[C@H](C2)N1C,> 100 µM,
COc1ccc(C2SC(C)C(=O)N2c2nc(-c3nc(-c4ccc(Cl)cc4)cs3)cs2)cc1 (stereo unspecified),> 100 µM,
O=C1/C(=C/c2ccccc2)CN(C(=O)OCc2ccccc2)C/C1=C\c1ccccc1,> 31.6 µM,
NC(CCOCCP(=O)(O)CCOCCC(N)C(=O)O)C(=O)O (stereo unspecified),> 100 µM,
COC(=O)[C@@H]1C[C@@H]2c3ccccc3N(S(=O)(=O)c3ccccc3)[C@@H]2N1C(=O)OC,> 100 µM,
COc1ccc(C(=O)c2cc3c(N)c(C(=O)Nc4cccc(Cl)c4C)sc3nc2C)cc1,> 25 µM,0.142 µM
COc1ccc(/C=C2\N=C(NN)N=C2Cl)cc1,> 100 µM,
COc1cc(/C=C2/C(=O)N(C(=O)c3ccc(Cl)cc3)N=C2C)cc(OC)c1OC,> 100 µM,
CCCCS(=O)(=O)Nc1ccc(Nc2c3ccccc3nc3ccccc23)c(OC)c1,24 µM,
O=C1OCc2cccc3c2-c2c1cccc2C(=O)OC3,> 100 µM,
